Measurements: PubChem BioAssay AID463173 (ICCB-Longwood Screening Facility, Harvard Medical School, 2010)
The whole screen tested about 52,000 compounds, of which about 1,700 (3.3%) were called active. Cut-off read from the data, not from the text of the source: active = survival mostly below about 52% (no sharp cut-off); inactive = mostly above about 56%. The list shows a part of the results.

Test system: Wild type
Experiment: S. aureus survival, RN4220 and DeltatarO strains – OD600, teichoic acid synthesis inhibitors, primary screen (AID 463173)
Settings: S. aureus RN4220 wild type/DeltatarO growth, OD600, 18 h, active compounds read low, screened at 18.75 µg/mL (by protocol)

SMILES | survival
COCCCn1c(=O)c2sccc2n2c(CCCC(=O)Nc3cc(C)cc(C)c3)nnc12 | inactive: 85%
O=C(O)C1CCCN1C(=O)c1cncc(Br)c1 (stereo not given) | inactive: 106%
COc1ccccc1CNC(=O)C1CCCN(C(=O)c2cnn(-c3ccc(F)cc3)c2-n2cccc2)C1 (stereo not given) | inactive: 88%
COc1ccccc1OCCCSc1nc(-c2ccc(C(C)(C)C)cc2)nc2cc(=O)[nH]n12 | inactive: 88%
Cc1ccc(NC(=O)C(Cc2ccccc2)n2cccc2)cc1 (stereo not given) | inactive: 96%
COc1ccc(OC)c(NCc2cccn2-c2nnc(N3CCCCC3)s2)c1 | inactive: 66%
CN1CCc2c(sc3c2C(=O)NC(c2ccc(OC(=O)c4ccccc4)cc2)N3)C1 (stereo not given) | inactive: 73%
Cc1ccc(C)c(S(=O)(=O)c2cn(C)c3cc(N4CCCCC4C)c(F)cc3c2=O)c1 (stereo not given) | inactive: 93%
COc1ccc(CNC(=O)Cn2ncc3c4ccccc4n(Cc4cccc(Cl)c4)c3c2=O)cc1 | inactive: 81%
COc1ccc(C)cc1NC(=O)c1ccc2c(=O)n3c(nc2c1)CCCCC3 | inactive: 76%
Cn1c(=O)c2c(-c3ccc(Cl)cc3)n(Cc3ccc(Cl)cc3)cc2n(C)c1=O | inactive: 49%
Cc1cccc(-c2nc3c4ccccc4nc(N4CCN(c5ccccc5F)CC4)n3n2)c1 | inactive: 71%
Cc1ccc(CNC(=O)NCc2noc3ccc(C)cc23)cc1 | inactive: 84%
COc1ccc(-c2c(C)c3ccc(O)c(CN4CCOCC4)c3oc2=O)cc1 | inactive: 97%
CCn1c2ccccc2c2cc(NC(=O)COc3ccc(C)cc3C)ccc21 | active: 8%
COC(=O)c1cc2sc(Cl)cc2n1Cc1c(C)cc(C)cc1C | inactive: 100%
Cc1ccc(Cn2c(CNS(=O)(=O)c3cccc([N+](=O)[O-])c3)nc3cccnc32)cc1 | inactive: 121%
COc1ccc(-c2cc(C)no2)cc1S(=O)(=O)Nc1c(C)cc(C)cc1C | inactive: 82%
CCOc1ccc(OCC)c(NS(=O)(=O)c2cc(-c3cnc(C)o3)ccc2OC)c1 | inactive: 78%
COc1ccc(OC)c(CNC(=O)c2ccc(C)c(NC(=O)c3nsc4ccccc34)c2)c1 | inactive: 83%
CCCCNC(=O)C1CCN(S(=O)(=O)CCC)CC1 | inactive: 83%
CCc1nn2c(=O)cc(COC(=O)c3cccc(NC(=O)c4cccs4)c3)nc2s1 | inactive: 69%
CCOC(=O)c1c(-c2ccccc2)csc1NC(=O)c1cc(=O)c2ccc(C)cc2o1 | inactive: 90%

SMILES | survival
COc1ccc(OC)c(NC(=O)c2c(N3CCCC3=O)c3cc(OC)ccc3n2C)c1 | inactive: 71%
Cc1nc2nncn2c(Nc2ccccc2)c1C | inactive: 83%
CCOC(=O)C1CCN(C(c2ccc(SC)cc2)c2c(O)cc(C)n(Cc3ccco3)c2=O)CC1 (stereo not given) | inactive: 135%
Cc1ccccc1-n1nc(CO)c(C(=O)NCc2cccnc2)n1 | inactive: 91%
CCc1cccc(C)c1NC(=O)Cn1cnc2c1c(=O)n(C)c(=O)n2C | inactive: 71%
COCCNC(=O)Nc1cc(C(=O)NCc2ccc(C(C)C)cc2)ccc1N1CCCC1 | inactive: 88%
COc1cc(C2NC(=O)c3c(sc4c3CCN(C)C4)N2)cc(Br)c1OC(=O)c1ccc(C)cc1 (stereo not given) | inactive: 75%
COc1ccc(N2CCN(C(=O)CCn3c(=O)[nH]c4cc(OC)c(OC)cc4c3=O)CC2)cc1 | inactive: 75%
Cc1ccc(CC/C=N/NC(N)=S)o1 | inactive: 117%
CCc1ccc(CNC(=O)C(C)n2ccc3cc(S(=O)(=O)N4CCCCCC4)ccc32)cc1 (stereo not given) | inactive: 75%
CCN1CCN(C(C)C(=O)N(C(C)C)C(C)C)CC1 (stereo not given) | inactive: 105%
COC(=O)c1c(NC(=O)CCCOc2ccc(C(C)(C)C)cc2)sc2c1C(C(=O)OC)CC2 (stereo not given) | active: -2%
Cc1ccc(NC(=O)C2CCN(S(=O)(=O)c3ccc4[nH]c5c(c4c3)CCCCC5)CC2)cc1 | inactive: 83%
COc1ccccc1N1CCN(c2ncnc3onc(-c4ccc(F)cc4)c23)CC1 | inactive: 84%
Cc1cccc(NC(=O)CCS(=O)(=O)c2cccc3nsnc23)c1C | inactive: 84%
COc1cccc(C(=O)NCCc2csc(-c3ccc(Cl)cc3)n2)c1 | inactive: 72%
O=C(NCc1cccc(F)c1)C1CCCN(C(=O)N2CCOc3ccccc32)C1 (stereo not given) | inactive: 85%
CCOC(=O)CSC1=Nc2ccccc2C2=NC(CCC(=O)NCc3ccc(F)cc3)C(=O)N12 (stereo not given) | inactive: 88%
CC1CN(C(=O)N2CCC(C(=O)NCc3cccs3)CC2)c2cc(Cl)ccc2O1 (stereo not given) | inactive: 82%
Cc1ccc(C)c(NC(=O)C2CCCN(c3nc4ccccc4s3)C2)c1 (stereo not given) | inactive: 76%
O=c1nc(N2CCCC2)nc(N2CCCC2)[nH]1 | inactive: 104%
CCc1ccccc1NC(=O)C1CCN(S(=O)(=O)c2ccccc2)CC1 | inactive: 72%
